According to article PMC5245780 (Journal of molecular recognition : JMR, 2016):

Molecular target: Hax1-6xHis (human Hax1 isoform 1, full length) (human, UniProt O00165-1)
Assay: co-IP

B1: 6xHis-SUMO-Grb7-RAPH (domain or fragment)
chain: not shown
Q: Does B1 bind?
A: binds
